Assay results taken from the supplement of paper PMC9135407.
“And” between values parts separate entries of the source, which are not always exact repeats. Identical values can stand only once. Counter-ions that a name gives are not always drawn. Among all 5,800 compounds or so, about 620 (11%) showed activity.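 The calls were made as follows: active = score above a cut-off or among the top three wells of a plate; in these data no inactive exceeds 0.85.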 This is a selection; strong and weak results do not stand in their true shares.

System: primary human hepatic stellate cells (donor 1)
Assay: scaled lipid accumulation score (0 = DMSO-like, 1 = nortriptyline-like); higher = stronger HSC inactivation (lipid re-accumulation), active = hit call of the paper
Settings: 48 h
[1] = library stock concentration: 10 mM
[2] = library stock concentration: 3.33 mM
[3] = library stock concentration: 1 mM

In the case of `COc1cc(C(=O)OCCCN2CCCN(CCCOC(=O)c3cc(OC)c(OC)c(OC)c3)CC2)cc(OC)c1OC.Cl.Cl`, the “scaled lipid accumulation score” value [1] was active: 0.84.
`CCCN(CC1CC1)c1nc(C)nc(Nc2c(Cl)cc(Cl)cc2Cl)c1Cl` was tested, and the “scaled lipid accumulation score” value [1] was inactive: 0.333 and inactive: 0.068.
With `COc1ccc(Cl)cc1NC(=O)Nc1cc(C)nc2ccccc12` the “scaled lipid accumulation score” value [1] was active: 1.1.
In the case of `CN1CCN(C(=O)c2cc3cc(Cl)ccc3[nH]2)CC1`, the “scaled lipid accumulation score” value [2] was inactive: 0.053 and the “scaled lipid accumulation score” value [1] was inactive: 0.452.
`COc1ccc(CNc2nc(N3CCC[C@H]3CO)ncc2C(=O)NCc2ncccn2)cc1Cl` [Avanafil] was tested, and the “scaled lipid accumulation score” value [2] was inactive: ≤ 0 and the “scaled lipid accumulation score” value [1] was inactive: 0.13.
In the case of `CCOC(=O)C1=C(C)NC(C)=C(C(=O)OC)C1c1cccc(Cl)c1Cl` (centres undefined) [Felodipine], the “scaled lipid accumulation score” value [1] was active: 0.931.
`Nc1ncnc2c1ncn2C1CCCC1` [9-cyclopentyladenine] was tested, and the “scaled lipid accumulation score” value [1] was inactive: 0.154.
In the case of `CC1O[C@H](O[C@]2(O[C@H]3CC[C@@]4(C)C(=CC[C@H]5[C@@H]6C[C@H]7[C@H]([C@H](C)[C@H]8CC[C@H](C)CN87)[C@@]6(C)CC[C@@H]54)C3)C[C@@H](O[C@@H]3OC(CO)[C@@H](O)[C@@H](O)C3O)[C@@H](O)C(CO)O2)C(O)[C@@H](O)[C@H]1O` (stereo partly drawn) [Solanine alpha], the “scaled lipid accumulation score” value was inactive: ≤ 0.
With `COc1cc(Nc2ncc(F)c(Nc3ccc4c(n3)NC(=O)C(C)(C)O4)n2)cc(OC)c1OC` the “scaled lipid accumulation score” value [1] was active: 1.06.
For `CC(=O)OCC(=O)[C@@]1(O)CC[C@H]2[C@@H]3CCC4=CC(=O)C=C[C@]4(C)[C@H]3[C@@H](O)C[C@@]21C`, the “scaled lipid accumulation score” value [1] was inactive: ≤ 0.
For `CC(=O)OCC(=O)[C@@]1(O)CC[C@H]2[C@@H]3CCC4=CC(=O)C=C[C@]4(C)[C@H]3[C@@H](O)C[C@@]21C` [Prednisolone acetate], the “scaled lipid accumulation score” value (library stock concentration: 5 mM) was inactive: 0.066 and the “scaled lipid accumulation score” value [1] was inactive: ≤ 0.
`O=C1NC(c2cccc([N+](=O)[O-])c2)=CCN1c1ccccc1O` [Icilin] was tested, and the “scaled lipid accumulation score” value [3] was inactive: ≤ 0 and the “scaled lipid accumulation score” value [1] was inactive: ≤ -0.07 and inactive: 0.063.
`C[C@]12CCC(=O)C=C1CC[C@@H]1[C@@H]2[C@@H](O)C[C@@]2(C)[C@H]1CC[C@]2(O)C(=O)COP(=O)(O)O` [Hydrocortisone phosphate triethylamine] was tested, and the “scaled lipid accumulation score” value (library stock concentration: 3.1 mM) was inactive: ≤ -0.001.
`CCCNC(=O)N1N=C(c2ccc(N)cc2)c2cc3c(cc2C1C)OCO3` (centres undefined) was tested, and the “scaled lipid accumulation score” value [1] was inactive: ≤ 0.
`CC[C@H](c1ccc(O)cc1)[C@@H](CC)c1ccc(O)cc1` [Hexestrol] was tested, and the “scaled lipid accumulation score” value was inactive: ≤ 0, the “scaled lipid accumulation score” value [2] was inactive: ≤ 0 and the “scaled lipid accumulation score” value [1] was inactive: 0.226 and inactive: ≤ 0.
With `Cc1c(Nc2ncccc2C(=O)O)cccc1C(F)(F)F` [Flunixin Meglumin] the “scaled lipid accumulation score” value [2] was inactive: ≤ 0 and the “scaled lipid accumulation score” value [1] was inactive: ≤ 0.
In the case of `Cc1c(Nc2ncccc2C(=O)O)cccc1C(F)(F)F` [Flunixin meglumine], the “scaled lipid accumulation score” value was inactive: ≤ 0.
In the case of `O=C(Cc1ccccc1)NO` [Phenylacetohydroxamic acid], the “scaled lipid accumulation score” value [1] was inactive: ≤ 0.
In the case of `CCCCCC(O)CCCC(=O)O` (centres undefined) [5-hydroxydecanoic acid sodium], the “scaled lipid accumulation score” value [1] was inactive: 0.018.
For `N#CC1(c2ccc(NC(=O)c3cccnc3NCc3ccncc3)cc2)CCCC1` [Apatinib], the “scaled lipid accumulation score” value [2] was inactive: ≤ 0 and the “scaled lipid accumulation score” value [1] was inactive: 0.463.
With `OC[C@@H](O)CN1CCN(c2ccccc2)CC1` [Levodropropizine] the “scaled lipid accumulation score” value [2] was inactive: ≤ 0 and the “scaled lipid accumulation score” value [1] was inactive: ≤ -0.001.
`CCCNC(=O)[C@H]1O[C@@H]1C(=O)N[C@H](C(=O)N1CCC[C@H]1C(=O)OC)C(C)CC` (some centres undefined) was tested, and the “scaled lipid accumulation score” value (library stock concentration: 12.6 mM) was active: 0.868.
For `NCCc1ccc(O)c(O)c1` [Dopamine HCl], the “scaled lipid accumulation score” value [2] was inactive: 0.03 and the “scaled lipid accumulation score” value [1] was inactive: ≤ 0.
With `NCCc1ccc(O)c(O)c1` [Dopamine hydrochloride] the “scaled lipid accumulation score” value [1] was inactive: ≤ 0 and inactive: ≤ -0.07.
For `NCCc1ccc(O)c(O)c1` [Intropin], the “scaled lipid accumulation score” value [1] was inactive: ≤ 0.
In the case of `Nc1ncnc2c1c(-c1cccc(OCc3ccccc3)c1)cn2[C@H]1C[C@@H](CN2CCC2)C1`, the “scaled lipid accumulation score” value [2] was active: 0.894 and the “scaled lipid accumulation score” value [1] was active: 1.01.
For `C[C@H](Cc1ccc(O)c(O)c1)[C@@H](C)Cc1ccc(O)c(O)c1`, the “scaled lipid accumulation score” value [1] was inactive: ≤ -0.055.
For `NC(N)=NC(N)=Nc1ccccc1` [1-Phenylbiguanide], the “scaled lipid accumulation score” value [1] was inactive: ≤ 0.
In the case of `CC(C)=CCCC(C)(OC1OC(COC2OCC(O)C(O)C2O)C(O)C(O)C1O)C1CCC2(C)C1C(O)CC1C3(C)CCC(OC4OC(CO)C(O)C(O)C4O)C(C)(C)C3CCC12C` (centres undefined) [Gynostemma Extract], the “scaled lipid accumulation score” value [2] was inactive: 0.01 and the “scaled lipid accumulation score” value [1] was inactive: ≤ 0.
`CCCCCCCCCCCCCCCC(=O)N[C@H](CN1CCOCC1)[C@H](O)c1ccccc1` (racemic) was tested, and the “scaled lipid accumulation score” value [3] was inactive: ≤ -0.021.
In the case of `NC(=O)c1ccccc1` [Benzamide], the “scaled lipid accumulation score” value [1] was inactive: ≤ 0.
In the case of `C[C@H](CS)C(=O)N1CCC[C@H]1C(=O)O` [Captopril], the “scaled lipid accumulation score” value was inactive: 0.036, the “scaled lipid accumulation score” value [2] was inactive: ≤ 0 and the “scaled lipid accumulation score” value (library stock concentration: 9.2 mM) was inactive: ≤ -0.006 and inactive: ≤ 0. For the same compound, the “scaled lipid accumulation score” value [1] was inactive: ≤ 0.
With `C[C@H](CS)C(=O)N1CCC[C@H]1C(=O)O` the “scaled lipid accumulation score” value [1] was inactive: ≤ 0.
With `c1ccc(\C(\c2c3cccc2)=C\CCNC)c(C=C3)c1` [Norcyclobenzaprine] the “scaled lipid accumulation score” value was active: 1.13.
With `CN(Cc1cc(Br)cc(Br)c1N)C1CCCCC1` [Bromhexine hydrochloride] the “scaled lipid accumulation score” value (library stock concentration: 4.8 mM) was inactive: 0.194 and the “scaled lipid accumulation score” value [1] was inactive: ≤ -0.027.
`CN(Cc1cc(Br)cc(Br)c1N)C1CCCCC1` [Bromhexine HCl] was tested, and the “scaled lipid accumulation score” value [2] was inactive: ≤ 0, the “scaled lipid accumulation score” value (library stock concentration: 5.3 mM) was inactive: 0.053 and the “scaled lipid accumulation score” value [1] was inactive: 0.46.
With `CN(C)CCCCC(=O)Nc1ccc(NC(=S)NC(=O)c2ccc(C(C)(C)C)cc2)cc1` [Tenovin-6] the “scaled lipid accumulation score” value [2] was active: 1.18.
`CC1(C)O[C@@H]2C[C@H]3[C@@H]4C[C@H](F)C5=CC(=O)C=C[C@]5(C)[C@H]4[C@@H](O)C[C@]3(C)[C@]2(C(=O)CO)O1` [FluniSOLIDe] was tested, and the “scaled lipid accumulation score” value [1] was inactive: 0.498.
For `CC1(C)O[C@@H]2C[C@H]3[C@@H]4C[C@H](F)C5=CC(=O)C=C[C@]5(C)[C@H]4[C@@H](O)C[C@]3(C)[C@]2(C(=O)CO)O1` [Flunisolide], the “scaled lipid accumulation score” value was inactive: ≤ 0 and the “scaled lipid accumulation score” value [1] was inactive: 0.051.
`Nc1nc(N)c2nc(-c3cccc(O)c3)c(-c3cccc(O)c3)nc2n1` was tested, and the “scaled lipid accumulation score” value [2] was inactive: ≤ 0 and the “scaled lipid accumulation score” value [1] was inactive: ≤ 0.
With `Cn1cnc2c(F)c(Nc3ccc(Br)cc3Cl)c(C(=O)NOCCO)cc21` [Selumetinib (AZD6244)] the “scaled lipid accumulation score” value [2] was inactive: ≤ 0 and the “scaled lipid accumulation score” value [1] was inactive: ≤ 0.
`Cn1cnc2c(F)c(Nc3ccc(Br)cc3Cl)c(C(=O)NOCCO)cc21` was tested, and the “scaled lipid accumulation score” value (library stock concentration: 80 uM) was inactive: ≤ 0, the “scaled lipid accumulation score” value (library stock concentration: 400 uM) was inactive: ≤ 0 and inactive: ≤ -0.005 and the “scaled lipid accumulation score” value (library stock concentration: 2 mM) was inactive: ≤ 0 and inactive: ≤ -0.005. For the same compound, the “scaled lipid accumulation score” value [1] was inactive: ≤ 0 and inactive: 0.768.
For `Br.Br.CN(C)CCCc1cc(C(=O)Nc2ccc(-c3ccncc3)cc2)ccc1O`, the “scaled lipid accumulation score” value [1] was active: 1.13.
With `CC(C)NCC(O)COc1cccc2[nH]ccc12` (centres undefined) [Pindolol] the “scaled lipid accumulation score” value was inactive: ≤ 0, the “scaled lipid accumulation score” value (library stock concentration: 8.1 mM) was inactive: ≤ -0.006 and inactive: 0.131 and the “scaled lipid accumulation score” value [1] was inactive: ≤ 0 and inactive: ≤ -0.055 and inactive: 0.071.
`CC(C)NCC(O)COc1cccc2[nH]ccc12` (centres undefined) was tested, and the “scaled lipid accumulation score” value [1] was inactive: ≤ 0.
In the case of `O=C(c1ccccc1)c1ccc2nc(NC(=O)c3csc(C4CCN(c5ncnc6ccsc56)CC4)n3)[nH]c2c1`, the “scaled lipid accumulation score” value [2] was inactive: ≤ -0.009 and the “scaled lipid accumulation score” value [1] was inactive: ≤ 0.
With `O=C(O)CCC/C=C\C[C@@H]1[C@@H](/C=C/[C@@H](O)Cc2ccccc2)[C@H](O)C[C@@H]1O` [16-phenyl tetranor Prostaglandin F2.alpha.] the “scaled lipid accumulation score” value [3] was inactive: ≤ 0.
In the case of `CCCCCC(O)C=CC1C2CC(CO2)C1CCCCCCC(=O)O` (stereo not drawn) [9,11-methane-epoxy Prostaglandin F1.alpha.], the “scaled lipid accumulation score” value [3] was inactive: 0.048.
In the case of `Cn1c(N2CCCCS2(=O)=O)nc(C(=O)NCc2ccc(F)cc2)c(O)c1=O`, the “scaled lipid accumulation score” value [2] was inactive: 0.024 and the “scaled lipid accumulation score” value [1] was inactive: ≤ 0.
With `CC(CN(C)C)CN1c2ccccc2CCc2ccccc21` (centres undefined) [Trimipramine maleate salt] the “scaled lipid accumulation score” value was inactive: 0.27.
For `CC(CN(C)C)CN1c2ccccc2CCc2ccccc21` (centres undefined) [Trimipramine maleate], the “scaled lipid accumulation score” value (library stock concentration: 4.9 mM) was inactive: 0.715 and the “scaled lipid accumulation score” value [1] was inactive: 0.647.
For `COP(=O)(OC)OC(c1ccc(Cl)cc1)P(=O)(OC)OC` (centres undefined), the “scaled lipid accumulation score” value [1] was inactive: ≤ -0.001.
`COC(=O)[C@H]1[C@H]2C[C@H]3c4[nH]c5ccccc5c4CCN3C[C@H]2CC[C@@H]1O` [Rauwolscine hydrochloride] was tested, and the “scaled lipid accumulation score” value was inactive: ≤ 0 and the “scaled lipid accumulation score” value [1] was inactive: ≤ 0.
For `COC(=O)C(C)(N)Cc1ccc(O)cc1` (racemic) [alpha-Methyl-DL-tyrosine methyl ester hydrochloride], the “scaled lipid accumulation score” value [1] was inactive: ≤ -0.019.
`O=c1c2ccccc2nc2n1CCc1c-2[nH]c2ccccc12` [Rutaecarpine] was tested, and the “scaled lipid accumulation score” value [1] was active: 0.975.
`C[N+](C)(C)CC(O)CC(=O)[O-]` (racemic) [DL-Carnitine HCl] was tested, and the “scaled lipid accumulation score” value [2] was inactive: ≤ 0 and the “scaled lipid accumulation score” value [1] was inactive: ≤ 0.
`CC(C)C(=O)c1c(C(C)C)nn2ccccc12` [Ibudilast] was tested, and the “scaled lipid accumulation score” value (library stock concentration: 8.7 mM) was inactive: ≤ -0.006 and the “scaled lipid accumulation score” value [1] was inactive: ≤ -0.07 and inactive: ≤ -0.006.
For `Nc1ncnc2c1ncn2[C@@H]1O[C@@H]2COP(=O)(O)O[C@H]2[C@H]1O` [Adenosine 3',5'-cyclic monophosphate], the “scaled lipid accumulation score” value [1] was inactive: 0.281.
In the case of `C[N+](C)(C)C[C@H](O)CC(=O)[O-]` [Levocarnitine], the “scaled lipid accumulation score” value (library stock concentration: 12.4 mM) was inactive: ≤ 0.
`CCCCCC#CCC#CCC#CCCCCCCC(=O)O` [8,11,14-Eicosatriynoic Acid] was tested, and the “scaled lipid accumulation score” value [3] was inactive: ≤ 0.
In the case of `Cn1cnc(=N)c2[nH]cnc21` [3-Methyladenine], the “scaled lipid accumulation score” value [2] was inactive: ≤ 0 and the “scaled lipid accumulation score” value [1] was inactive: ≤ 0.
